# About 1,700 (3.3%) of roughly 52,000 compounds were called active. Rule as the data show it: active = survival mostly below about 52% (no sharp cut-off); inactive = mostly above about 56%. Some of the results follow.
# Tested on: Wild type
# Assay: S. aureus survival, RN4220 and DeltatarO strains – OD600, teichoic acid synthesis inhibitors, primary screen (AID 463173)
# Conditions: S. aureus RN4220 wild type/DeltatarO growth, OD600, 18 h, hits give low values, screened at 18.75 µg/mL (by protocol)
row,Compound,survival
1,COc1ccc(CNc2nc(-c3ccco3)nn2C(=O)c2ccccc2C)cc1,inactive: 86%
2,CC1C(=O)CC(c2ccco2)NC1c1ccco1 (configuration not stated),inactive: 103%
3,CCOc1ccc(Nc2oc(-c3ccc(COc4ccc(C)cc4)o3)nc2C#N)cc1,inactive: 83%
4,CCn1cc(C(=O)NCc2ccccc2Cl)c(=O)c2cc(S(=O)(=O)N3CCCCCC3)ccc21,inactive: 69%
5,CCCCC(=O)Nc1ccc(C(=O)OCc2cc(=O)n3ccsc3n2)cc1,inactive: 83%
6,O=S(=O)(c1ccccc1)c1nc(-c2ccco2)oc1SCc1ccc(F)cc1,inactive: 83%
7,COc1ccc(NC(=O)c2nnn(CC(=O)Nc3cc(C)cc(C)c3)c2N)c(OC)c1,inactive: 139%
8,COc1ccc(Cn2c(SCc3ccc(C(=O)NCc4cccs4)cc3)nc3ccncc32)cc1,inactive: 81%
9,CCN(C(=O)c1cc(S(=O)(=O)N2CCCC2)cn1C)c1ccc(OC)cc1,inactive: 79%
10,CCOC(=O)c1sc2cccc(F)c2c1S(=O)(=O)Nc1ccccc1F,inactive: 124%
11,O=C(CCCn1c(=O)[nH]c2ccsc2c1=O)N1CCN(c2ccc(Cl)cc2)CC1,inactive: 63%
12,Cc1ccc(C)c(NC(=O)Cn2c(=O)n(CC(=O)NCCc3ccccc3)c(=O)c3ccccc32)c1,inactive: 78%
13,O=C(CSc1nnc(-c2ccc(Cl)cc2)c(-c2ccc(Cl)cc2)n1)NC1CCCC1,inactive: 65%
14,Cc1ccc(NC(=O)Cn2c(=O)cc(-c3ccccc3)c3c(C)nn(C)c32)c(Cl)c1,inactive: 80%
15,CCOCCCNC(=O)Cn1nc(CC)n2c(cc3c(OC)cccc32)c1=O,inactive: 86%
16,COC(=O)c1ccc(NC(=O)CSc2nc3cc4ccccc4cc3[nH]2)cc1,inactive: 80%
17,N#Cc1ccccc1NC(=O)C(=O)NCC(c1cccnc1)N1CCc2ccccc21 (configuration not stated),inactive: 90%
18,COc1cc(OC)c(NC(=O)C(C)n2nc(-c3ccc(C)cc3)c3c(c2=O)CCCC3)cc1Cl (configuration not stated),inactive: 76%
19,O=C(Nc1cc(F)ccc1F)c1cnn2c(C(F)F)cc(-c3ccccc3)nc12,inactive: 143%
20,CCOC(=O)CC(NC(=O)CCc1c(C)nc2cc(-c3ccccc3)nn2c1C)c1ccc(C)cc1 (configuration not stated),inactive: 128%
21,Cc1ccc(NC(=O)C2CCCN(c3ncnc4onc(C)c34)C2)cc1Cl (configuration not stated),inactive: 121%
22,O=C(c1ccccc1)c1ccc2nc(N3CCN(c4ccc(F)cc4)CC3)c3nncn3c2c1,inactive: 89%

row,Compound,survival
1,COc1ccccc1-c1cc2nc(C)c(CCC(=O)NC3CCCCC3)c(C)n2n1,inactive: 73%
2,COc1ccc(CCNC(=O)c2cc3n(n2)C(C(F)(F)F)CC(C2CC2)N3)cc1OC (configuration not stated),inactive: 93%
3,Cc1ccc(S(=O)(=O)c2nnn3c2nc(N2CCN(c4cccc(C)c4C)CC2)c2ccccc23)cc1C,inactive: 66%
4,COc1cc(C=C(C#N)C#N)ccc1OC(=O)c1ccco1,inactive: 105%
5,COc1ccc(CCNC(=O)CSc2nnc(-c3ccc(C)cc3)c(-c3ccc(C)cc3)n2)cc1OC,inactive: 69%
6,CCCCOc1cccc(C(=O)N(Cc2ccc(Cl)cc2)C2CCS(=O)(=O)C2)c1 (configuration not stated),inactive: 93%
7,Cc1ccc(-c2noc(-c3ccc(NCC4CCCO4)c([N+](=O)[O-])c3)n2)cc1 (configuration not stated),inactive: 88%
8,CCNC(=S)N1CCN(CC)CC1,inactive: 114%
9,CS(=O)(=O)n1nc(-c2ccco2)nc1N,inactive: 94%
10,CC(=O)c1ccc(N2CCN(C(=O)CS(=O)(=O)c3cccc4nsnc34)CC2)cc1,inactive: 71%
11,COc1cccc(C2=NN(S(C)(=O)=O)C(c3cn(-c4ccccc4)nc3-c3cccs3)C2)c1 (configuration not stated),inactive: 158%
12,COc1ccc(CNC(=O)CN(C)c2nn3c(=O)cc(C)nc3s2)cc1,inactive: 86%
13,Cc1cc(=O)[nH]c2nnc(SCCC(C)C)n12,inactive: 72%
14,COc1ccccc1NC(=O)N1CC=C(c2c[nH]c3ccccc23)CC1,inactive: 25%
15,COc1ccc(C(=O)c2cn(Cc3ccccc3F)c3ccc(F)cc3c2=O)cc1,inactive: 97%
16,CC1(C)CCCC2(C)C1CCC(C)(O)C2CCO (configuration not stated),inactive: 111%
17,Cc1ccc(-c2nnc(Nc3ccc(Cl)cc3)c3ccccc23)cc1S(=O)(=O)NCC1CCCO1 (configuration not stated),inactive: 114%
18,O=C(c1cccc(Cl)c1)N1CCC(c2nc3c(nnn3Cc3ccc(F)cc3F)c(=O)[nH]2)CC1,active: 9%
19,COc1cc(C(=O)Nc2ccccc2OCc2cc(=O)n3cc(C)sc3n2)cc(OC)c1OC,inactive: 136%
20,Nc1nc(N)nc(COc2ccccc2)n1,inactive: 104%
21,COc1ccc(-c2[nH]c(-c3ccc(OC)c(OC)c3)nc2SCC(=O)Nc2ccccc2)cc1,inactive: 83%
22,Cc1cccc(NC(=O)c2oc3ccc(S(=O)(=O)N4CCCCC4)cc3c2C)c1C,inactive: 70%

row,Compound,survival
1,COCc1[nH]nc2c1C(c1ccccc1C(F)(F)F)C(C#N)=C(N)O2 (configuration not stated),inactive: 114%
2,Cc1ccc(Nc2c(-c3ccc(N(C)C)cc3)nc3ccccn23)cc1,inactive: 129%
3,Cn1ccc2cc(S(=O)(=O)N3CCCN(C(=O)Nc4ccc(Br)cc4)CC3)ccc21,inactive: 75%
4,CCOc1ccccc1C(=O)N(Cc1ccc(N(C)C)cc1)Cc1ccco1,inactive: 92%
5,CCOc1ccc(-c2nc3c(c(CC)nn3-c3ccccc3)c3cc(OC)c(OC)cc23)cc1,inactive: 88%
6,CSc1ccccc1NC(=O)C1=CC(c2ccc3c(c2)OCO3)=NS(=O)(=O)N1C,inactive: 87%
7,CCOC(=O)c1ccc2c(c1)N(CC(=O)Nc1cc(F)ccc1F)C(=O)c1ccccc1S2,inactive: 78%
8,O=C(NCCCN1CCN(c2ccc(F)cc2)CC1)c1cc2c(s1)-c1ccccc1OC2,inactive: 62%
9,CCN(CC)CCOC(=O)c1ccc(NC(=O)c2nn(-c3ccc(C)cc3)c(=O)c3c2c2ccccc2n3C)cc1,inactive: 123%
10,CCN(C(=O)Cn1nc2c3cc(F)ccc3n(Cc3cccc(C)c3)cc-2c1=O)c1cccc(C)c1,inactive: 129%
11,CCOC(=O)CCN(Cc1ccccc1)S(=O)(=O)c1csc(C(N)=O)c1,inactive: 92%
12,N=c1n(CC(=O)O)c2ccccc2n1Cc1ccccc1,inactive: 112%
13,COc1ccc(NC(=O)c2c(NC(=O)COc3ccc(Cl)cc3)sc3c2CCCCC3)cc1,inactive: 143%
14,Cc1cccc(-c2nc3cc(NC(=O)Cc4ccc(Cl)cc4)ccc3o2)c1,inactive: 83%
15,COc1cc(OC)c(NC(=O)N2CCOc3ccc(C)cc32)cc1Cl,inactive: 82%
16,Cc1nn(-c2ccccc2)c2sc(C(=O)NN=C3CCCC3)cc12,inactive: 109%
17,O=c1c2c(n3nnnc3n1-c1ccccc1)-c1ccccc1CC21CCCC1,inactive: 93%
18,CNC(=O)CN(C#N)c1nc(N(C)C)nc(N(C)C)n1,inactive: 96%
19,Cc1ccc(C)c(NC(=O)C(=O)NCC(c2cccnc2)N2CCN(c3ccc(F)cc3)CC2)c1 (configuration not stated),inactive: 24%
20,COc1ccc(CNC(=O)c2oc3c(c2C)-c2nn(Cc4ccccc4Cl)cc2CC3)cc1,inactive: 105%
21,N#Cc1cc2c(=O)n3ccccc3nc2n(-c2nnc(SCc3ccc(F)cc3)s2)c1=O,inactive: 97%
22,COc1ccc(Cn2nnc3c(=O)[nH]c(C4CCCN(C(=O)c5ccccc5Cl)C4)nc32)cc1OC (configuration not stated),inactive: 90%

row,Compound,survival
1,Cc1ccc(S(=O)(=O)c2cn(C)c3cc(N4CCN(c5ccccc5)CC4)c(F)cc3c2=O)cc1,inactive: 74%
2,CCOC(=O)N1CCc2c(sc3c2c(=O)n(Cc2ccccc2)c(=O)n3Cc2cccc(Cl)c2)C1,inactive: 103%
3,CCOC(=O)c1ccc(NC(=O)c2nc(S(=O)(=O)Cc3ccccc3)ncc2Cl)cc1,inactive: 20%
4,COc1cc(NC(=O)C2=C(C)Nc3nnnn3C2c2ccc(SC)cc2)c(OC)cc1Cl (configuration not stated),inactive: 71%
5,CC1CN(C(=O)CCC(=O)NCc2cccs2)c2ccccc2O1 (configuration not stated),inactive: 81%
6,COc1ccc(NC(=O)c2c(NCc3ccc(C)o3)sc3c2CCC(C)C3)cc1 (configuration not stated),inactive: 136%
7,Cc1nn(CCCC(=O)NCc2ccccc2)c(=O)c2c1sc1ccccc12,inactive: 105%
8,CC1CCCCN1S(=O)(=O)c1ccc(NC(=O)c2cnccn2)cc1 (configuration not stated),inactive: 102%
9,Cc1ccc(-n2nc(C(=O)N3CCCCC3C)c(=O)n(C)c2=O)cc1 (configuration not stated),inactive: 80%
10,CC1CCCCN1C(=O)CSc1nnc2c3ccccc3n(CC(=O)O)c2n1 (configuration not stated),inactive: 109%
11,O=C(NC1CC(=O)N(c2ccccc2)C1)C1CCCC1 (configuration not stated),inactive: 121%
12,Cc1ccc2c(c1)c(=O)c1ccccc1n2CCCC(=O)Nc1ccc(F)cc1F,inactive: 84%
13,Cc1ccc(CSc2nc(=O)c3c(C)cc(C)nc3n2C2CC2)cc1,inactive: 136%
14,COC(=O)c1ccc2nc(C)cc(Nc3ccc(O)cc3)c2c1,inactive: 153%
15,CCOC(=O)c1cc(-c2ccc(F)cc2)n(CCC(=O)Nc2ccccc2OC)c1C,inactive: 75%
16,CC(Sc1ncc(S(=O)(=O)c2ccc(C(C)C)cc2)c(N)n1)C(=O)Nc1ccccc1 (configuration not stated),inactive: 47%
17,COc1ccc(NC(=O)Cn2c(=O)n(-c3ccc(Cl)cc3)c(=O)c3c(C)c(C(=O)N(C)C)sc32)cc1Cl,inactive: 73%
18,CCOC(=O)c1ccc(NC(=O)C(=O)NCc2ccco2)cc1,inactive: 80%
19,COc1cccc(Cc2nc3ccccc3nc2SCC(=O)N2CCc3ccccc32)c1,inactive: 78%
20,Cc1cccc(Oc2nc3c(C)cccn3c(=O)c2/C=C(\C#N)c2nc3ccccc3s2)c1,inactive: 71%
21,COC(=O)c1cc(Cl)c(NC(=O)/C=C/c2ccc(Cl)cc2Cl)cc1OC,inactive: 71%

# — PubChem BioAssay AID463173 (ICCB-Longwood Screening Facility, Harvard Medical School, 2010)
